Test results as given in US20230331823A1 (HENRY M JACKSON FOUNDATION FOR THE ADVANCEMENT OF MILITARY …, published 2023).

Biological target: SARS-CoV-2 WA-1 Spike on pseudovirions (SARS-CoV-2)
Assay: cell-based or functional assay

Row | Binder | pseudovirus neutralization IC50 [µg/mL] | pseudovirus neutralization IC80 [µg/mL]
1 | ShAb01a (ShAb01 VNAR-3c-Fc) (Fc fusion) ARVDQTPRSVTKETGESLTINCVLRDSNCALSSTHWYRKKSGSTNEERILQGRRYVETVNSGSKSFSLRINDLRVEDSGTYRCKVYWGNSWQDKFCPGLGSYEYGDGTAVTVNSREPKSCDKGLEVLFQ[no letters for human IgG1 Fc and a few adjoining residues] | 0.228 | 
2 | ShAb02a (ShAb02 VNAR-3c-Fc) (Fc fusion) ARVDQTPQTITKETGESLTINCVLRDSNCALASTDWYRKKSGSTNEESISKGGRYVETVNSGSKSFSLRINDLTVEDSGTYRCNAWDSWETRQLKCDYDVYGGGTVVTVNSREPKSCDKGLEVLFQ[no letters for human IgG1 Fc and a few adjoining residues] | 0.038 | 0.127
